In a collection of fitness landscapes (doi:10.1016/j.celrep.2020.107928):
Whole data set: some 81,000 sequences, median “one-hybrid fitness for binding NBS DNA” near -0.1, cut for the highest 2% near 0.36. Some of the results follow.

B1: Caulobacter ParB omega fusion; a variant is named by its letters at X, in order, B8GW30 (parent)
chain: MESVVVGEPGMSEGRRGLGRGLSALLGEVDAAPAQAPGEQLGGSREAPIEILQRNPDQPRRTFREEDLEDLSNSIREKGVLQPILVRPSPDTAGEYQIVAGERAWRAAQRAGLKTVPIMVRELDDLAVLEIGIIENVQRADLNVLEEALSYKVLMEKFERTQENIAQTIGKSXSHVANXMRLLXLPDEVQSYLVSGELTAXHARAIAAAADPVALAKQIIEGGLSVRETEALARKAPNLSAGKSKGGRPPRVKDTDTQALESDLSSVLGLDVSIDHRGSTGTLTITYATLEQLDDLCNRLTRGI

Variants of: B1
Assay: one-hybrid fitness for binding NBS DNA (the Noc-binding site; scaled: cognate 1, non-cognate 0); higher = stronger binding
Settings: with NBS DNA site
How it was run: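 Caulobacter ParB libraries with four specificity codons randomised were screened by bacterial one-hybrid selection in the E. coli USO strain, using a HIS3 reporter whose site lies 19 bp from the promoter. Selection ran for 48 hours at 37°C on M9 lacking histidine, with 0.1 mM IPTG and 5 mM 3-AT. Plasmids were Illumina-sequenced before and after selection, three replicate libraries were pooled, and variants with under 10 reads were dropped. Fitness is the log change in each variant's read ratio to wild type, rescaled against the cognate and non-cognate sites.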

one-hybrid fitness for binding NBS DNA, 0.329:
QINS

one-hybrid fitness for binding NBS DNA, 0.246:
QHKE

one-hybrid fitness for binding NBS DNA, 0.209:
KART

one-hybrid fitness for binding NBS DNA, ≤ 0.2:
YPRI
QKWL
PSDY
PDDY
FLVY
QREP
RRPV
DHRS
NHSD
PTSH
TLEV
SSFC
QMLC
RPRG
GMSF
QKEV
KRVN
SFNY
PCRG
LADY
INRI
QNRD
QYWA
FEDR
TYQM
MWEI
WTTC
RGRA
QWSS
QSCA
YVVR
ETNM
TWNF
AMTP
MSCC
SQQL
HDPV
ENTT
VHWS
ALKK
VYGR
RANQ
AVAI
SHPL
QKHL
PTAL
CNMC
RNAK
MSSD
AGLC
CFTT
VSWG
GTVG
QADY
VKAQ
QSMK
TTRI
RDDD
TSPK
CTMS
QTWW
LASA
TCVC
QMTF
ASLI
FKPG
LSMA
QQIY
SDFR
RTEG
RDDL
VSKN
SPKR
NTHT
KKMT
TNTI
PKIT
PPCR
PRCI
QCGW
RGYA
NAVR
IPTW
NIER
DPEK
CLER
TADT
FRSL
TARH
QTFM
SADT
RVSH
GVDR
ACEH
AFQR
ATKC
LRWV
SDTI
NYGR
SRSF
IWSG
RPTI
SYVR
CLRM
RMEA
HGLP
MHNR
DVNN
CGCG
EGWC
FRMW
AQVE
NTQY
KPIK
QPQE
ARHG
YGEP
LGRT
YSIW
YIGV
NGSC
MPGA
PACE
NEIL
CTWT
LFGT
KHSL
TVEW
QGPV
QHPE
LEEV
VGCG
RYMH
TKSV
IMCS
PPLQ
ATRT
KQLL
DFGS
SSVH
QVSF
QLNG
KRRP
YKKC
ASMV
HSDI
GNTW
AINK
RNIP
SCWR
RSCG
QTHE
HGLL
LRRK
YDSW
AQKK
RHQH
APTH
RTMV
WHVC
TAAL
GCFS
TTKN
ILAP
KGRT
PGIN
NVWT
LTKQ
KTTK
NFDE
ILLD
CIGV
FGAC
AAAS
LVMC
RYMF
AKNS
HNSA
CYPM
TPCT
GKTM
RGNS
ESPA
FLRD
HICR
PHKT
KFGS
PDLR
GWNN
KIPV
PVDM
NPYT
DNKS
GMVF
TMPT
EQYW
TVRS
YSGT
HTPT
EHEC
SSAL
GCSG
ILNK
PIYP
HHPY
ICYR
TDSF
THAN
RHKI
TNFE
VDWL
LWYC
ATVN
IRTC
DMYC
FVRR
AYNV
EVKM
YWVS
MQYL
TIGA
RSLY
MSAV
EITA
HNKG
HPKT
YISC
HYVF
SKTT
QIPT
SVAS
TNLF
EMKL
YATF
FPYL
YTLV
TVSY
LVPM
FSRL
SDNA
QNYI
FNGF
PDAQ
CKYR
AQMS
STWN
ALLG
NPEF
IVNT
TTWT
PVQS
VYES
LFYT
PHKG
RQYW
SHES
IYTP
AGMK
RKPN
ATKQ
HQPC
SWVT
DTNA
HFDR
HRSS
MYGY
SCSS
VSIM
MMVS
KAGY
FFAA
RQDF
MRRS
PENC
LLYT
AFGN
QTDW
RRGL
LSLH
RASN
GSDN
EAIG
LWSS
MNPS
TVSE
GWFR
DKCC
VASR
RKSI
YTDK
KLLC
DKQL
DGKP
SIWV

one-hybrid fitness for binding NBS DNA, 0.258:
RQVR

one-hybrid fitness for binding NBS DNA, 0.249:
RKWA
KKYT

one-hybrid fitness for binding NBS DNA, 0.421:
QYGT

one-hybrid fitness for binding NBS DNA, 0.79:
QMRT

one-hybrid fitness for binding NBS DNA, 0.345:
RIAS

one-hybrid fitness for binding NBS DNA, 0.455:
QQRC

one-hybrid fitness for binding NBS DNA, 0.262:
KTRS

one-hybrid fitness for binding NBS DNA, 0.313:
RRYC
